# The supplement of paper PMC8728848
# The other results are listed elsewhere or left out.
# B1: rCNL (Clitocybe nebularis), B2ZRS9 (protein)
# chain: SITPGTYNITNVAYTNRLIDLTGSNPAENTLIIGHHLNKTPSGYGNQQWTLVQLPHTTIYTMQAVNPQSYVRVRDDNLVDGAALVGSQQPTPVSIESAGNSGQFRIKIPNLGLALTLPSDANSTPIVLGEVDETSTNQLWAFESVSAV
# Experiments:
# Test in all cases: glycan array binding signal (z-score within array); higher = stronger binding
# Conditions in all cases: glycan notation: IUPAC condensed, linker removed
# [1] = biological target: Gal(b1-4)GlcNAc(b1-3)Gal(b1-4)GlcNAc(b1-3)Gal(b1-4)GlcNAc(b1-3)Gal(b1-4)GlcNAc(b1-3)Gal(b1-4)GlcNAc(b1-2)[Gal(b1-4)GlcNAc(b1-3)Gal(b1-4)GlcNAc(b1-3)Gal(b1-4)GlcNAc(b1-3)Gal(b1-4)GlcNAc(b1-3)Gal(b1-4)GlcNAc(b1-6)]Man(a1-6)[Gal(b1-4)GlcNAc(b1-3)Gal(b1-4)GlcNAc(b1-3)Gal(b1-4)GlcNAc(b1-3)Gal(b1-4)GlcNAc(b1-3)Gal(b1-4)GlcNAc(b1-2)Man(a1-3)]Man(b1-4)GlcNAc(b1-4)[Fuc(a1-6)]GlcNAc
# Method in brief: (§1)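 The binding signal is a Z-score computed within each array. Data were drawn from 3228 arrays in the Consortium for Functional Glycomics database, restricted to those with a known protein sequence. Scores were averaged over arrays of the same protein sequence at different concentrations or buffers, and over linkers, and negative values can be taken as non-binding.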
# [2] = biological target: Gal(b1-4)GlcNAc(b1-3)Gal(b1-4)GlcNAc(b1-3)Gal(b1-4)GlcNAc(b1-3)Gal(b1-4)GlcNAc(b1-3)Gal(b1-4)GlcNAc(b1-3)Gal(b1-4)GlcNAc(b1-2)Man(a1-3)[Gal(b1-4)GlcNAc(b1-3)Gal(b1-4)GlcNAc(b1-3)Gal(b1-4)GlcNAc(b1-3)Gal(b1-4)GlcNAc(b1-3)Gal(b1-4)GlcNAc(b1-3)Gal(b1-4)GlcNAc(b1-2)Man(a1-6)]Man(b1-4)GlcNAc(b1-4)GlcNAc
# Method in brief: as §1
# [3] = biological target: Gal(b1-4)GlcNAc(b1-3)Gal(b1-4)GlcNAc(b1-3)GalNAc
# Method in brief: as §1
# [4] = biological target: Gal(b1-4)GlcNAc(b1-3)Gal(b1-4)GlcNAc(b1-3)[Gal(b1-4)GlcNAc(b1-3)Gal(b1-4)GlcNAc(b1-6)]GalNAc
# Method in brief: as §1
# [5] = biological target: Gal(b1-4)GlcNAc(b1-3)Gal(b1-4)GlcNAc(b1-6)[Gal(b1-3)]GalNAc
# Method in brief: as §1
# [6] = biological target: Gal(b1-4)GlcNAc(b1-3)Gal(b1-4)[Fuc(a1-3)]GlcNAc(b1-3)Gal(b1-4)[Fuc(a1-3)]GlcNAc
# Method in brief: as §1
# [7] = biological target: Gal(b1-4)GlcNAc(b1-3)GalNAc
# Method in brief: as §1
# [8] = biological target: Gal(b1-4)GlcNAc(b1-3)[Fuc(a1-3)GlcNAc(b1-6)]Gal(b1-4)Glc
# Method in brief: as §1
# [9] = biological target: Gal(b1-4)GlcNAc(b1-3)[Gal(b1-4)GlcNAc(b1-6)]Gal(b1-4)GlcNAc
# Method in brief: as §1
# [10] = biological target: Gal(b1-4)GlcNAc(b1-3)[Gal(b1-4)GlcNAc(b1-6)]GalNAc
# Method in brief: as §1
# [11] = biological target: Gal(b1-4)GlcNAc(b1-3)[GlcNAc(b1-6)]Gal(b1-4)GlcNAc
# Method in brief: as §1
# [12] = biological target: Gal(b1-4)GlcNAc(b1-6)Gal(b1-4)GlcNAc
# Method in brief: as §1
# [13] = biological target: Gal(b1-4)GlcNAc(b1-6)GalNAc
# Method in brief: as §1
# [14] = biological target: Gal(b1-4)GlcNAc(b1-6)[Gal(b1-3)]GalNAc
# Method in brief: as §1
# [15] = biological target: Gal(b1-4)GlcNAc(b1-6)[Gal(b1-4)GlcNAc(b1-3)]GalNAc
# Method in brief: as §1
# Gal(b1-4)GlcNAc6P = biological target: Gal(b1-4)GlcNAc6P
# Method in brief: as §1
# Gal(b1-6)Gal = biological target: Gal(b1-6)Gal
# Method in brief: as §1
# Gal3S(b1-3)GalNAc = biological target: Gal3S(b1-3)GalNAc
# Method in brief: as §1
# Gal3S(b1-3)GlcNAc = biological target: Gal3S(b1-3)GlcNAc
# Method in brief: as §1
# [16] = biological target: Gal3S(b1-3)[Fuc(a1-4)]GlcNAc
# Method in brief: as §1
# Gal3S(b1-4)Glc = biological target: Gal3S(b1-4)Glc
# Method in brief: as §1
# Gal3S(b1-4)Glc6S = biological target: Gal3S(b1-4)Glc6S
# Method in brief: as §1
# Gal3S(b1-4)GlcNAc = biological target: Gal3S(b1-4)GlcNAc
# Method in brief: as §1
binder,measurement,setting,value
B1,glycan array binding signal (z-score),[1],-0.182
same,glycan array binding signal (z-score),[2],-0.08
same,glycan array binding signal (z-score),[3],-0.058
same,glycan array binding signal (z-score),[4],0.003
same,glycan array binding signal (z-score),[5],-0.049
same,glycan array binding signal (z-score),[6],-0.082
same,glycan array binding signal (z-score),[7],-0.268
same,glycan array binding signal (z-score),[8],-0.192
same,glycan array binding signal (z-score),[9],-0.1
same,glycan array binding signal (z-score),[10],-0.001
same,glycan array binding signal (z-score),[11],-0.189
same,glycan array binding signal (z-score),[12],-0.257
same,glycan array binding signal (z-score),[13],0.128
same,glycan array binding signal (z-score),[14],-0.272
same,glycan array binding signal (z-score),[15],-0.199
same,glycan array binding signal (z-score),Gal(b1-4)GlcNAc6P,-0.224
same,glycan array binding signal (z-score),Gal(b1-6)Gal,-0.211
same,glycan array binding signal (z-score),Gal3S(b1-3)GalNAc,-0.3
same,glycan array binding signal (z-score),Gal3S(b1-3)GlcNAc,-0.176
same,glycan array binding signal (z-score),[16],0.743
same,glycan array binding signal (z-score),Gal3S(b1-4)Glc,-0.28
same,glycan array binding signal (z-score),Gal3S(b1-4)Glc6S,-0.261
same,glycan array binding signal (z-score),Gal3S(b1-4)GlcNAc,-0.174
